Test results published in the supplement of paper PMC4996465.
Viability of KB3-1 and Nalm-6 cells after 48 h of drug alone (CellTiter-Glo), 11 doses over about 4.5 log units. % of DMSO wells, lower = more cell loss; AC50 from the fitted curve, lower = more potent. No active / inactive call. Nalm-6 was screened in two runs. AC50 is listed only for well-fitted inhibitory curves. KB3-1 is a HeLa-derived carcinoma line, Nalm-6 a B-cell precursor leukaemia line.

Assays:
[1] = system: KB3-1; experiment: viability (% of DMSO control); higher = more viable cells
Description: (§1)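 Eleven-dose screen of the NCATS MIPE 3 library on cells without co-treatment; CellTiter-Glo after 48 h, as % of DMSO wells.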

[2] = system: Nalm-6; experiment: as above
Description: as §1

O=C(O)[C@@H](c1ccc(OCc2ccc3ccccc3n2)cc1)C1CCCC1 [Veliflapon]
Conditions	viability [%]
[1], 0.00078 µM	103
[1], 0.00234 µM	103
[1], 0.00702 µM	102
[1], 0.0211 µM	106
[1], 0.0632 µM	59.6
[1], 0.19 µM	102
[1], 0.569 µM	107
[1], 1.71 µM	110
[1], 5.12 µM	105
[1], 15.4 µM	105
[1], 46.1 µM	90.7
[2], run: 1, 0.00078 µM	87.3
[2], run: 1, 0.00234 µM	83.1
[2], run: 1, 0.00702 µM	102
[2], run: 1, 0.0211 µM	116
[2], run: 1, 0.0632 µM	114
[2], run: 1, 0.19 µM	119
[2], run: 1, 0.569 µM	112
[2], run: 1, 1.71 µM	127
[2], run: 1, 5.12 µM	109
[2], run: 1, 15.4 µM	110
[2], run: 1, 46.1 µM	88.3
[2], run: 2, 0.00078 µM	103
[2], run: 2, 0.00234 µM	104
[2], run: 2, 0.00702 µM	104
[2], run: 2, 0.0211 µM	103
[2], run: 2, 0.0632 µM	102
[2], run: 2, 0.19 µM	107
[2], run: 2, 0.569 µM	108
[2], run: 2, 1.71 µM	115
[2], run: 2, 5.12 µM	108
[2], run: 2, 15.4 µM	106
[2], run: 2, 46.1 µM	99.7

CCOC(=O)\C1=C\[C@@]2(CC)CCCN3CCC4=C([C@@H]23)[N]1C5=C4C=CC=C5 [Vinpocetine]
Conditions	viability [%]
[1], 0.000445 µM	95.8
[1], 0.00133 µM	96.3
[1], 0.004 µM	98.9
[1], 0.012 µM	99
[1], 0.036 µM	97
[1], 0.108 µM	99.8
[1], 0.324 µM	96.8
[1], 0.973 µM	95.3
[1], 2.92 µM	101
[1], 8.76 µM	97
[1], 26.3 µM	87.1
[2], run: 1, 0.000445 µM	87.4
[2], run: 1, 0.00133 µM	93.8
[2], run: 1, 0.004 µM	91
[2], run: 1, 0.012 µM	103
[2], run: 1, 0.036 µM	103
[2], run: 1, 0.108 µM	102
[2], run: 1, 0.324 µM	102
[2], run: 1, 0.973 µM	110
[2], run: 1, 2.92 µM	108
[2], run: 1, 8.76 µM	107
[2], run: 1, 26.3 µM	88.2
[2], run: 2, 0.000445 µM	95.3
[2], run: 2, 0.00133 µM	96.2
[2], run: 2, 0.004 µM	97.6
[2], run: 2, 0.012 µM	101
[2], run: 2, 0.036 µM	99.8
[2], run: 2, 0.108 µM	95.3
[2], run: 2, 0.324 µM	108
[2], run: 2, 0.973 µM	101
[2], run: 2, 2.92 µM	98.1
[2], run: 2, 8.76 µM	106
[2], run: 2, 26.3 µM	101

CS(=O)(=O)c1ccc(C(=O)Nc2ccc(Cl)c(-c3ccccn3)c2)c(Cl)c1 [Vismodegib]
Conditions	viability [%]
[1], 0.00078 µM	96.7
[1], 0.00234 µM	96.1
[1], 0.00702 µM	92.8
[1], 0.0211 µM	95.1
[1], 0.0632 µM	96.2
[1], 0.19 µM	103
[1], 0.569 µM	93.7
[1], 1.71 µM	104
[1], 5.12 µM	96.1
[1], 15.4 µM	98.3
[1], 46.1 µM	86.4
[2], run: 1, 0.00078 µM	94.8
[2], run: 1, 0.00234 µM	101
[2], run: 1, 0.00702 µM	103
[2], run: 1, 0.0211 µM	102
[2], run: 1, 0.0632 µM	110
[2], run: 1, 0.19 µM	100
[2], run: 1, 0.569 µM	110
[2], run: 1, 1.71 µM	108
[2], run: 1, 5.12 µM	113
[2], run: 1, 15.4 µM	115
[2], run: 1, 46.1 µM	97.5
[2], run: 2, 0.00078 µM	104
[2], run: 2, 0.00234 µM	89.4
[2], run: 2, 0.00702 µM	100
[2], run: 2, 0.0211 µM	99.3
[2], run: 2, 0.0632 µM	105
[2], run: 2, 0.19 µM	110
[2], run: 2, 0.569 µM	99.1
[2], run: 2, 1.71 µM	107
[2], run: 2, 5.12 µM	108
[2], run: 2, 15.4 µM	114
[2], run: 2, 46.1 µM	102

COc1nc(C)cnc1NS(=O)(=O)c1cccnc1-c1ccc(-c2nnco2)cc1 [Zibotentan]
Conditions	viability [%]
[1], 0.00078 µM	108
[1], 0.00234 µM	109
[1], 0.00702 µM	104
[1], 0.0211 µM	109
[1], 0.0632 µM	110
[1], 0.19 µM	107
[1], 0.569 µM	107
[1], 1.71 µM	105
[1], 5.12 µM	97
[1], 15.4 µM	101
[1], 46.1 µM	98.1
[2], run: 1, 0.00078 µM	126
[2], run: 1, 0.00234 µM	117
[2], run: 1, 0.00702 µM	129
[2], run: 1, 0.0211 µM	125
[2], run: 1, 0.0632 µM	130
[2], run: 1, 0.19 µM	129
[2], run: 1, 0.569 µM	128
[2], run: 1, 1.71 µM	129
[2], run: 1, 5.12 µM	118
[2], run: 1, 15.4 µM	112
[2], run: 1, 46.1 µM	105
[2], run: 2, 0.00078 µM	106
[2], run: 2, 0.00234 µM	105
[2], run: 2, 0.00702 µM	104
[2], run: 2, 0.0211 µM	107
[2], run: 2, 0.0632 µM	107
[2], run: 2, 0.19 µM	109
[2], run: 2, 0.569 µM	107
[2], run: 2, 1.71 µM	107
[2], run: 2, 5.12 µM	101
[2], run: 2, 15.4 µM	103
[2], run: 2, 46.1 µM	98.9

CC(c1cc2ccccc2s1)N(O)C(N)=O (stereo not drawn) [Zileuton]
Conditions	viability [%]
[1], 0.00156 µM	94.1
[1], 0.00468 µM	97.3
[1], 0.014 µM	103
[1], 0.0421 µM	102
[1], 0.126 µM	103
[1], 0.379 µM	104
[1], 1.14 µM	107
[1], 3.41 µM	109
[1], 10.2 µM	110
[1], 30.7 µM	104
[1], 92.2 µM	97.5
[2], run: 1, 0.00156 µM	81.8
[2], run: 1, 0.00468 µM	99
[2], run: 1, 0.014 µM	99
[2], run: 1, 0.0421 µM	105
[2], run: 1, 0.126 µM	110
[2], run: 1, 0.379 µM	104
[2], run: 1, 1.14 µM	107
[2], run: 1, 3.41 µM	112
[2], run: 1, 10.2 µM	110
[2], run: 1, 30.7 µM	97.3
[2], run: 1, 92.2 µM	88.4
[2], run: 2, 0.00156 µM	90.2
[2], run: 2, 0.00468 µM	96
[2], run: 2, 0.014 µM	92.3
[2], run: 2, 0.0421 µM	94.9
[2], run: 2, 0.126 µM	102
[2], run: 2, 0.379 µM	102
[2], run: 2, 1.14 µM	103
[2], run: 2, 3.41 µM	104
[2], run: 2, 10.2 µM	106
[2], run: 2, 30.7 µM	93.6
[2], run: 2, 92.2 µM	88.3

CC/C=C\C[C@H]1C(=O)CC[C@@H]1CC(=O)OC [methyl jasmonate]
Conditions	viability [%]
[1], 0.00078 µM	107
[1], 0.00234 µM	105
[1], 0.00702 µM	103
[1], 0.0211 µM	104
[1], 0.0632 µM	108
[1], 0.19 µM	109
[1], 0.569 µM	105
[1], 1.71 µM	103
[1], 5.12 µM	99.5
[1], 15.4 µM	104
[1], 46.1 µM	106
[2], run: 1, 0.00078 µM	100
[2], run: 1, 0.00234 µM	111
[2], run: 1, 0.00702 µM	108
[2], run: 1, 0.0211 µM	109
[2], run: 1, 0.0632 µM	121
[2], run: 1, 0.19 µM	117
[2], run: 1, 0.569 µM	117
[2], run: 1, 1.71 µM	114
[2], run: 1, 5.12 µM	121
[2], run: 1, 15.4 µM	115
[2], run: 1, 46.1 µM	104
[2], run: 2, 0.00078 µM	107
[2], run: 2, 0.00234 µM	108
[2], run: 2, 0.00702 µM	103
[2], run: 2, 0.0211 µM	106
[2], run: 2, 0.0632 µM	112
[2], run: 2, 0.19 µM	109
[2], run: 2, 0.569 µM	103
[2], run: 2, 1.71 µM	102
[2], run: 2, 5.12 µM	105
[2], run: 2, 15.4 µM	104
[2], run: 2, 46.1 µM	101
